Data published in PMC9911399, “Two distinct binding modes provide the RNA-binding protein RbFox with extraordinary sequence specificity”.
Numbering of substitutions follows the chain as printed; changes in the protein carry UniProt numbers. The list shows a part of the results.

T1: RBFOX1 RRM (Homo sapiens, UniProt Q9NWB1 109-208)
T1 sequence: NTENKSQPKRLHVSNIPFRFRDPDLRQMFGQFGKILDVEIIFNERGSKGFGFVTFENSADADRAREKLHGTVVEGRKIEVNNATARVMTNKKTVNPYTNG

B1: UCGUAAC (DNA:RNA)
RNA: GGGAGACCGGAAUUCAGAUUGUCCUCGUAACUUAAAUCCCGUCGUAGCCACCA
DNA 1: CAATCTGAATTCCGGTCTCCC
DNA 2: TGGTGGCTACGACGGGATT
B2: UUGGUGU (DNA:RNA)
RNA: B1 RNA with C26U, U28G, A29U, A30G, C31U
DNA 1: CAATCTGAATTCCGGTCTCCC
DNA 2: TGGTGGCTACGACGGGATT
B3: GCUGAAU (DNA:RNA)
RNA: B1 RNA with U25G, G27U, U28G, C31U
DNA 1: CAATCTGAATTCCGGTCTCCC
DNA 2: TGGTGGCTACGACGGGATT
B4: GCAUGGC (DNA:RNA)
RNA: B1 RNA with U25G, G27A, A29G, A30G
DNA 1: CAATCTGAATTCCGGTCTCCC
DNA 2: TGGTGGCTACGACGGGATT
B5: UCUAUGA (DNA:RNA)
RNA: B1 RNA with G27U, U28A, A29U, A30G, C31A
DNA 1: CAATCTGAATTCCGGTCTCCC
DNA 2: TGGTGGCTACGACGGGATT
B6: CAGCAGG (DNA:RNA)
RNA: B1 RNA with U25C, C26A, U28C, A30G, C31G
DNA 1: CAATCTGAATTCCGGTCTCCC
DNA 2: TGGTGGCTACGACGGGATT
B7: AACCCUG (DNA:RNA)
RNA: GGGAGACCGGAAUUCAGAUUGUCCAACCCUGUUAAAUCCCGUCGUAGCCACCA
DNA 1: CAATCTGAATTCCGGTCTCCC
DNA 2: TGGTGGCTACGACGGGATT
B8: GUAGUUG (DNA:RNA)
RNA: B7 RNA with A25G, A26U, C27A, C28G, C29U
DNA 1: CAATCTGAATTCCGGTCTCCC
DNA 2: TGGTGGCTACGACGGGATT
B9: UAGGGAG (DNA:RNA)
RNA: B1 RNA with C26A, U28G, A29G, C31G
DNA 1: CAATCTGAATTCCGGTCTCCC
DNA 2: TGGTGGCTACGACGGGATT

These binders were tested against T1, RBFOX1 RRM (assay: EMSA; HiTS-Eq, 1 nM pool, 10 min; buffer printed only for the single-RNA assays: 10 mM Tris pH 7.5, 150 mM NaCl, 3.4 mM EDTA, 0.001% NP-40, 30 C). Settings: tags: His6 N-terminal (pET28a); label: 5' 32P.
Summary of the method: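 Purified wild-type or mutant RbFox RRM at increasing concentrations was equilibrated with 1 nM of 5′-radiolabelled RNA carrying 7 randomized nucleotides for 10 min in 50 µL. Unbound RNA was separated by 8% native PAGE and sequenced. Relative association constants came from read-count changes of each RNA species compared with the control reaction, normalised to the cognate motif.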

Row | Binder | binding signal
1 | B1 | 0.0085 KA relative to UGCAUGU
2 | B2 | 0.0306 KA relative to UGCAUGU
3 | B3 | 0.024 KA relative to UGCAUGU
4 | B4 | 0.43 KA relative to UGCAUGU
5 | B5 | 0.0107 KA relative to UGCAUGU
6 | B6 | 0.00872 KA relative to UGCAUGU
7 | B7 | 0.00331 KA relative to UGCAUGU
8 | B8 | 0.0172 KA relative to UGCAUGU
9 | B9 | 0.00912 KA relative to UGCAUGU
